Laboratory results: US20190284272A1 (published 2019)
Positions count from the first letter of the chain named.

B1: Feline_IL31Ra_HIgG1_Fc_X1_Fn3 (Fc fusion)
chain: VLPAKPENISCVFYYEENFTCTWSPEKEASYTWYKVKRTYSYGYKSDICPSDNSTRGNHTFCSFLPPTITNPDNYTIQVEAQNADGIIKSDITHWSLDAITKIEPPEIFSVKPVLGVKRMVQIKWIRPVLAPVSSTLKYTLRFKTVNSAYWMEVNFTKEDIDRDETYNLTGLQAFTEYVLALRCATKESMFWSGWSQEKMGTTEE[gap - human IgG1 Fc]
notes: Extracellular domain of feline IL-31Ra (with its expected N-terminal proximal fibronectin III domain) fused to human IgG1 Fc, native signal peptide, ExpiCHO; also called feline IL-31 Ra receptor subunit
B2: Feline_OSMR_hIgG1_Fc (Fc fusion)
chain: EPLSLAPESLEVSIDSARQCLHLKWSVHNLAYHQELKMVFQIEISRIKTSNVIWVENYSTTVKRNQVLRWSWESKLPLECAKHSVRMRGAVDDAQVPELRFWSNWTSWEEVDVQSSLGHDPLFVFPKDKLVEEGSNVTICYVSRSHQNNISCYLEGVRMHGEQLDPNVCVFHLKNVPFIRETGTNIYCKADQGDVIKGIVLFVSKVFEEPKDFSCETRDLKTLNCTWAPGSDAGLLTQLSQSYTLFESFSGKKTLCKHKSWCNWQVSPDSQEMYNFTLTAENYLRKRSVHLLFNLTHRVHPMAPFNVFVKNVSATNATMTWKVHSIGNYSTLLCQIELDGEGKVIQKQNVSVKVNGKHLMKKLEPSTEYAAQVRCANANHFWKWSEWTRRNFTTAEAA[gap - human IgG1 Fc]
notes: Extracellular domain of feline OSMR fused to human IgG1 Fc, made with its native signal peptide in ExpiCHO; also called feline OSMR receptor subunit; soluble feline OSMR

Experiments:
[1] = target: T1, mutant feline IL-31 11E12 protein (Feline_IL31_11E12_mutant) (feline); assay: indirect ELISA, IL-31 mutant coated at 1 µg/ml, receptor-Fc in solution (FIG. 8)
T1 construct: also called feline 11E12 mutant; 11E12 IL-31 mutant
T1 chain: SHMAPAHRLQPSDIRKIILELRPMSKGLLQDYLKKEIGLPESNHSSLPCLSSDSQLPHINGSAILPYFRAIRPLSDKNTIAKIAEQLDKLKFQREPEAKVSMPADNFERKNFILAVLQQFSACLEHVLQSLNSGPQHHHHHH
Method: (§1) To analyze the ability of these receptor forms to bind wildtype and mutant IL-31 proteins, and indirect ELISA was run by coating 100 ul of each respective protein on an immulon 2HB plate (1 μg/ml) overnight in carb/bicarb buffer (sigma C3041-100CAP) at 4 C. The ELISA plates were then blocked with 5% NFDM blocking buffer in PBST for 1 hour at room temperature followed by binding of multiple concentrations of each receptor construct at room for 1 hour. Following washing with PBST, the presence of the bound receptor (Fc fusion) was identified using mouse anti-human IgG1 (Lifetech A10684, 1:500 dilution) for 1 hour at room temperature. The wells were again washed with PBST and developed with KPL sureblue 3,3′,5,5′-tetra-methylbenzidine (TMB) microwell substrate. […] These observations are in contrast to previous reports indicating the IL-31 protein initially binds to the IL-31Ra subunit and further recruits OSMR to the site. As the biological role of IL-31 is still being determined, it is of great importance to understand the dynamics of receptor binding and the potential consequences to attenuation of its role in diseases such as atopic dermatitis. For this reason, consideration was further given to these observations when characterizing antibodies the bind to epitopes capable of disrupting the ability of IL-31 to recognize IL-31Ra and OSMR.

[2] = target: T2, mutant feline IL-31 15H05 protein (Feline_IL31_15H05_mutant) (feline); assay: as above
T2 construct: also called feline 15H05 mutant; 15H05 IL-31 mutant
T2 chain: T1 chain with A81D, A84I, P103A, D105A
Method: as §1

Binder | binding result [1] | binding result [2]
B1 | no binding | no binding
B2 | no binding | no binding
